In PubChem BioAssay AID485281 (National Center for Advancing Translational Sciences (NCATS), 2010):
Out of some 350,000 compounds screened, about 260 (0.074%) were called active. The inconclusive results got no clear call from the source; some entries with a clear call stand among them for comparison. Calls follow the shape of the dose curve; as a rule, active = well fitted inhibition curve with a large enough effect; inconclusive = small, poorly fitted or top-dose-only effect; inactive = no such curve, though single readings can be large or run the other way. A potency beside an inconclusive call is a rough fit, not a confirmed value.

Target: Ferritin light chain (Equus caballus) (UniProt P02791)
UniProt P02791, sequence (P02791 whole entry, looked up): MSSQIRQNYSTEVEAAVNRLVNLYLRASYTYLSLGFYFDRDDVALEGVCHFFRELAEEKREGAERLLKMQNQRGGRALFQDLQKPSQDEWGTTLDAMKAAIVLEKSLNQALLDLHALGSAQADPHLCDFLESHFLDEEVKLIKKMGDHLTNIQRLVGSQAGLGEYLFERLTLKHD
Experiment: qHTS Assay for Identification of Novel General Anesthetics; also: nearly all actives have a fitted effect of over 20% in size
Conditions: apoferritin/1-aminoanthracene competitive binding, fluorescence; activity change, negative = displacement: at 77.5 µM (top of the series)
Method in brief: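 Horse-spleen apoferritin (10 uM) in 50% saturated 1-aminoanthracene in PBS was incubated 10 min at room temperature with compound. Fluorescence (ex 380, em 535 nm) was normalized to free and bound 1-AMA, with concentration-response fitted by a four-parameter Hill equation.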
% is scaled to controls: 0 for no effect and ±100 for the full control effect; potency is read from the fitted curve at half-maximal effect; tags tell the direction and shape of the fitted curve.

Activity change, negative = displacement, inactive:
COC(=O)c1cc2c(ccn2-c2ccc(F)cc2)n1Cc1cccc(OC)c1 2.77%
CSc1ccc(CNC(=O)c2ccccc2NC(=O)c2nsc3ccccc23)cc1 11.3%
Cc1ccc(C)c(NS(=O)(=O)c2cc3c(cc2Cl)NC(=O)CO3)c1 -7.67%
O=C(CSc1ccc(-c2ccc(F)cc2)nn1)N1CCCCC1 -22.3%
COc1cccc(C2=NOC(C(=O)Nc3ccc4c(c3)OCO4)C2)c1OC (stereo not given) 6.19%
Cc1ccc2c(c1)C1(C(=O)N2C)N2CC3(C)CN1CC(C)(C2)C3=O (stereo not given) -7.14%
COc1cccc([C@@H]2Oc3ccc(OC)cc3/C(=N/O[C@@H](C)c3cn([C@H]4COC[C@H]4O)nn3)[C@@H]2O)c1 -6.72% [at 15.3 µM]

Potency, inconclusive:
COc1ccc(NC(=O)c2c(-c3ccccc3)c(-c3ccccc3)nn(C)c2=O)c(OC)c1 31.6 µM [inhibitor, partial curve]
CN(C)S(=O)(=O)c1cccc(C(=O)OCC(=O)Nc2sccc2C#N)c1 44.7 µM [inhibitor, partial curve]
O=C(NCc1ccccc1Cl)c1ccc2c(c1)OCO2 31.6 µM [inhibitor, partial curve]
CCOc1ccc(NC(=O)NCCCSC2CCCCC2)cc1 4.47 µM [inhibitor, full curve]
CCc1ccc(S(=O)(=O)c2nnn3c2nc(N2CCCC2)c2sccc23)cc1 2.82 µM [inhibitor, full curve]
CN(C)N=C1c2cc(S(=O)(=O)N(C)C)ccc2-c2ccc(S(=O)(=O)N(C)C)cc21 17.8 µM [inhibitor, partial curve]
O=C(c1ccccc1F)N1CCN(c2cnn(-c3cccc(Cl)c3)c(=O)c2Cl)CC1 31.6 µM [inhibitor, partial curve]
CCOc1ccc(C(C(=O)NC2CCCC2)N(C(=O)c2snc(C(N)=O)c2N)c2cccc(O)c2)cc1 (stereo not given) 8.91 µM [inhibitor, full curve, poor fit]
CC(C)c1onc(-c2c(Cl)cccc2Cl)c1COc1ccc(/C=C/c2cccc(C(=O)O)c2)c(Cl)c1 31.6 µM [inhibitor, partial curve]
O=S(=O)(NC1CCCC1)c1cccc(-c2nnc(-c3ccccc3)o2)c1 15.8 µM [inhibitor, partial curve]
CCn1c(=O)c(C(=O)Nc2ncccc2C)c(O)c2ccccc21 35.5 µM [inhibitor, single point]
COC(=O)Cn1nc(-c2ccc(C)cc2)c2ccccc2c1=O 20 µM [inhibitor, partial curve]
O=C(COc1ccc(F)c(Cl)c1)N1CCCCCCC1 15.8 µM [inhibitor, partial curve]
C/C(=N\NC(N)=S)C1(C)CCCCC1 10 µM [inhibitor, full curve]
CC(C)(C)OC(=O)N1CCC(c2c(C(=O)NCCN3CCC(Cc4ccccc4)CC3)cnn2-c2ccccc2)CC1 14.1 µM [inhibitor, partial curve]
O=c1c2ccccc2sn1-c1ccccc1 50.1 µM [inhibitor, single point]
O=[N+]([O-])c1cc(/C=N\Nc2nccs2)ccc1O 39.8 µM [inhibitor, single point]
COc1ccc(C(=O)N2CCc3cc(OC)c(OC)cc3C2COc2ccc3c(C)cc(=O)oc3c2)c(OC)c1 (stereo not given) 10 µM [inhibitor, full curve]
O=C(Nc1ccc2c(c1)OCO2)C1CCN(C(=O)CSc2ncnc3ccccc23)CC1 25.1 µM [inhibitor, partial curve]
Cc1ccc(NCCC(=O)c2cccs2)cc1C 25.1 µM [inhibitor, partial curve]
CCOc1ccccc1NC(=O)CN1C(=O)C2(SCC(=O)N2c2cccc(F)c2)c2ccccc21 (stereo not given) 3.98 µM [inhibitor, full curve]
Cc1cccc(C)c1-n1cccc1/C=C1\SC(=S)N(c2cccc(C(=O)O)c2)C1=O 44.7 µM [inhibitor, single point]
COc1ccc(C(=O)/C(=C/O)N=Nc2ccc(F)cc2)cc1 25.1 µM [inhibitor, partial curve]
CC1CC(C)CN(C(=O)COC(=O)c2cc3ccccc3cc2O)C1 (stereo not given) 10 µM [inhibitor, partial curve]
COc1ccc(N2CCN(S(=O)(=O)c3ccc4c(c3)CCCC4)CC2)c([N+](=O)[O-])c1 20 µM [inhibitor, partial curve]
N#CCSc1nc2cc(C(=O)N3CCCC3)ccc2c(=O)n1Cc1ccccc1 28.2 µM [inhibitor, partial curve]
N#Cc1c(-c2ccccc2)c(-c2ccccc2)nn(CC(=O)NNC(=O)Nc2ccccc2)c1=O 8.91 µM [inhibitor, partial curve]
Cc1ccc(-c2ccc(/C=N/O)o2)cc1[N+](=O)[O-] 28.2 µM [inhibitor, single point]
O=C(OCc1cc2ccccc2[nH]c1=O)C1CCCCC1 35.5 µM [inhibitor, partial curve]
CC1Cc2ccccc2N1C(=O)CO/N=C/c1ccc(OC(F)F)cc1 (stereo not given) 50.1 µM [inhibitor, single point]
c1csc(CSc2nc3ccccc3s2)c1 15.8 µM [inhibitor, partial curve]
Cc1c(NC(=O)/C=C/c2cn(-c3ccccc3)nc2-c2ccc(F)cc2)c(=O)n(-c2ccccc2)n1C 39.8 µM [inhibitor, single point]
CC(=O)c1ccc(-n2c(C)ccc2-c2ccccc2)cc1 35.5 µM [inhibitor, partial curve]
